In PubChem BioAssay AID686978 (National Center for Advancing Translational Sciences (NCATS), 2013):
Hit rate of the full screen: of about 420,000 compounds, about 64,000 (15%) were called active. The shares of active, inactive and inconclusive entries below differ from those in the screen. The call rests on the fitted dose curve; in most records, active means well fitted inhibition curve with a large enough effect; inconclusive means small, poorly fitted or top-dose-only effect; inactive means flat fitted curve, though single readings scatter. No potency is given beside an inconclusive call; the fits are too rough.
On the % scale 0 is the no-effect control and ±100 the full control effect; potency means the concentration at half of the fitted maximal effect; tags describe the fitted curve by direction and shape.

Assay: qHTS for Inhibitors of human tyrosyl-DNA phosphodiesterase 1 (TDP1): qHTS in cells in absence of CPT; further: nearly all actives have a fitted effect of over 55% in size
Details: DT40 Tdp1-/- hTDP1 cells, no CPT, ATP luminescence, 48 h; activity change, negative = growth inhibition: at 46.2 µM (top of the series) unless noted
Outline: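 Growth kinetics read by CellTiter-Glo luminescence after ≥48 hr at 37 °C. Cells: DT40 Tdp1-/- stably carrying human TDP1, 400 per well, compound exposure in the absence of CPT (DMSO vehicle).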
In the case of `CCc1ccc(NC(=O)N2CCC(N3CCN(Cc4ccc(C)cc4)C(=O)C3=O)CC2)cc1`, the “activity change, negative = growth inhibition” value is reported as inactive: -19.4%.
In the case of `CC1CCCC/C1=N\NC(=S)Nc1ccccc1` (centres undefined), the “activity change, negative = growth inhibition” value is reported as inactive: -2.78%.
In the case of `CC1=C(C(=O)Nc2ccccc2)C(c2ccc(C)o2)n2c(s/c(=C/c3ccccc3)c2=O)=N1` (centres undefined), the Potency is reported as inconclusive [inhibitor, single point].
For `O=C(NCC1CCCO1)c1ccccc1NS(=O)(=O)c1cc([N+](=O)[O-])ccc1Cl` (centres undefined), the Potency was inconclusive [inhibitor, single point].
In the case of `O=C(CCCn1c(=S)[nH]c2cc3c(cc2c1=O)OCO3)N1CCN(c2ccccn2)CC1`, the Potency is reported as inconclusive [inhibitor, single point].
With `Cc1cccc(NC(=S)NC(=O)c2ccc(-c3ccccc3)cc2)n1` the Potency was inconclusive [inhibitor, single point].
With `CCN1C(=NCc2cccc(C(F)(F)F)c2)N[C@@H](c2cccc(C(F)(F)F)c2)C(C(=O)OC)=C1C` the Potency was active: 5.01 µM.
With `O=C(Nc1ccccc1)c1nc[nH]c1C(=O)NCCCCNC(=O)c1[nH]cnc1C(=O)Nc1ccccc1` the Potency was active: 11.6 µM.
In the case of `COc1ccc(C(CCN2CCN(c3ccccc3)CC2)c2c(O)cc(OC)cc2OC)cc1` (centres undefined), the Potency is reported as active: 20.6 µM.
In the case of `Cc1ccc(C2CC(c3ccc(Cl)cc3)n3nc(N)nc3N2)cc1` (centres undefined), the Potency is reported as inconclusive [inhibitor, single point].
With `C=CCn1c(NC(C)c2cc(Cl)ccc2O)nc2ccccc21` (centres undefined) the Potency was inconclusive [inhibitor, single point].
For `CCNc1ncc2nc(-c3ccc(OC)cc3)c(=O)n(CCc3ccccc3)c2n1`, the “activity change, negative = growth inhibition” value was inactive: 5.32%.
For `FC(F)(F)c1ccc2c(c1)N1CCCC1CN2` (centres undefined), the Potency was inconclusive [inhibitor, single point].
In the case of `COc1ccc(C2CC(c3cccs3)=NN2C(=O)CSc2nc3c(cnn3-c3ccccc3)c(=O)[nH]2)cc1` (centres undefined), the Potency is reported as inconclusive [inhibitor, single point].
In the case of `CCc1ccccc1NC(=O)COc1ccc2oc(-c3ccc(OC)cc3)cc(=O)c2c1`, the “activity change, negative = growth inhibition” value is reported as inactive: -8.33%.
With `CCOC(=O)c1cnc2ccc(C)cn2c1=O` the “activity change, negative = growth inhibition” value was inactive: -8.02%.
For `CCc1ccc(S(=O)(=O)NCc2ccc(C(=O)NCCN(Cc3ccccc3)C(C)C)cc2)cc1`, the Potency was active: 13 µM.
With `CC1(C(=O)NS(=O)(=O)c2cccc(Cl)c2)CCN1C(=O)C1(c2ccc(Cl)cc2)CCC1` (centres undefined) the Potency was inconclusive [inhibitor, single point].
With `O=C(C1=C[C@H](c2csc3ccccc23)C[C@H](OCc2ccc(CO)cc2)O1)N1CCCCCCC1` the Potency was active: 20.6 µM.
